Experimental data: the supplement of paper PMC10126150
Values marked as one replicate rest on one cluster of the flow cell; about a third of the high ones do not repeat.

system: ATP; test: switch fluorescence ratio, 500 uM ATP over buffer (Cy3 cluster intensity, sum of 5 cycles each) (fold (ratio)); higher = stronger signal-on switching upon ATP binding; sequences stand for … in TCGTCGGCAGCGTCAGATGTGTATAAGAGACAGTTTTTTTTTTTTTTTTTTTTTTTTT…TC; settings: aptamer strand: ATP DNA aptamer (quencher-CACCTGGGGGAGTATTGCGGAGGAAGG + anchor), 100 nM annealed; ATP concentration: 500 uM; one replicate
In short: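 For every switch-domain sequence, the fluorescence ratio is the mean of per-cluster values, each being summed target-cycle Cy3 intensity over summed buffer-cycle Cy3 intensity. Clusters outside 100-1000 RFU were excluded. On a modified Illumina MiSeq flow-cell, the Cy3-labelled switching-strand clusters were annealed to 100 nM quencher-labelled ATP aptamer, imaged in selection buffer and then after 15 min with 500 uM ATP at 22 °C. Five such cycles were run, with NaOH stripping and re-annealing between them.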
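Further: ATP exposure 15 min at 22 °C before imaging.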

| Sequence | switch fluorescence ratio |
| --- | --- |
| ACAGGTCTAA | 1.05 |
| ACAGGTGTTG | 1.27 |
| ACAGTATGTT | 1.05 |
| ACAGTGGTGG | 1.08 |
| ACATAAATAG | 1.12 |
| ACATAAATCG | 0.993 |
| ACATAACAC | 1.15 |
| ACATAACTAG | 1.06 |
| ACATAAGTGA | 1.02 |
| ACATAATTCT | 1.03 |
| ACATACTGGG | 1.35 |
| ACATAGAGGG | 1.04 |
| ACATAGCGTC | 1.08 |
| ACATATTTAG | 1.02 |
| ACATCAGTCG | 1.1 |
| ACATCCATGC | 1.02 |
| ACATCGAGCC | 1.03 |
| ACATCGTAAT | 1.09 |
| ACATCTGACT | 1.06 |
| ACATGAAACT | 0.989 |
| ACATGCAGCA | 1.02 |
| ACATGCGATA | 1.06 |
| ACATGCGCAT | 0.975 |
| ACATGGGCGG | 1.01 |
| ACATGGTGC | 1.21 |
| ACATTAACAG | 1.06 |

| Sequence | switch fluorescence ratio |
| --- | --- |
| ACATTAATCA | 1.08 |
| ACATTATTGA | 1.02 |
| ACATTCAGGG | 1.08 |
| ACATTCGATA | 0.986 |
| ACATTCTGAG | 1.02 |
| ACATTGAGAA | 0.991 |
| ACATTGCCGC | 1.04 |
| ACATTGCGAG | 1 |
| ACATTGGACG | 1 |
| ACCAACAGCG | 1.05 |
| ACCAAGGTAC | 1.59 |
| ACCAAGTTCG | 1.05 |
| ACCAATATGT | 1.04 |
| ACCAATCGTT | 1.01 |
| ACCACCAGTC | 1.12 |
| ACCACCGGTC | 1 |
| ACCACGACAC | 1.99 |
| ACCAGACAGT | 1.02 |
| ACCAGATCAA | 1.06 |
| ACCAGGGTAT | 0.997 |
| ACCAGGGTGA | 1.23 |
| ACCAGTTG | 1.03 |
| ACCATTCAAC | 1.03 |
| ACCATTCTT | 0.982 |
| ACCATTGTTT | 0.998 |
| ACCCAGACAA | 1.07 |

| Sequence | switch fluorescence ratio |
| --- | --- |
| ACCCAGTCT | 1.07 |
| ACCCATAGGT | 0.987 |
| ACCCATTTGA | 1.29 |
| ACCCCCAAGG | 1.88 |
| ACCCCCTATT | 2.87 |
| ACCCCCTTAA | 1.36 |
| ACCCCTTGGA | 1.06 |
| ACCCGGCAAG | 1.34 |
| ACCCGGTTCT | 1.02 |
| ACCCGTAGAC | 4.21 |
| ACCCGTGCGT | 1 |
| ACCCGTTTT | 0.995 |
| ACCCTAGCTG | 1.06 |
| ACCCTATTAG | 1.04 |
| ACCCTCCCCG | 2.17 |
| ACCCTCTTAG | 1.13 |
| ACCCTGAGTC | 1.17 |
| ACCCTTCTAG | 1.06 |
| ACCGAACGGG | 1.15 |
| ACCGAATAAG | 1.19 |
| ACCGACATGG | 1.04 |
| ACCGACCAAT | 4.72 |
| ACCGAGCTTG | 1.03 |
| ACCGCACACT | 2.38 |
| ACCGCACAGT | 1.68 |
| ACCGCCTGCG | 1.06 |

| Sequence | switch fluorescence ratio |
| --- | --- |
| ACCGCTAGGC | 1.52 |
| ACCGGACCC | 1.4 |
| ACCGGAGGCG | 1.02 |
| ACCGGCCTAG | 1.1 |
| ACCGGCGGGT | 1.16 |
| ACCGGCGTCT | 1.28 |
| ACCGGCTGCT | 0.992 |
| ACCGGCTTCG | 0.976 |
| ACCGGGCCTA | 0.974 |
| ACCGTACACG | 1.13 |
| ACCGTATCGA | 1.04 |
| ACCGTCATGG | 1.04 |
| ACCGTCTTCG | 1 |
| ACCGTGATCG | 1.06 |
| ACCGTGCTAG | 1 |
| ACCGTTATAA | 1.19 |
| ACCGTTATAG | 1.34 |
| ACCTAATC | 1.19 |
| ACCTACAAA | 1.22 |
| ACCTACCATG | 1.24 |
| ACCTACGAAT | 1.42 |
| ACCTACTCGA | 1.23 |
| ACCTATATAA | 1.07 |
| ACCTATATGT | 1.06 |
| ACCTATTGCA | 1.07 |
| ACCTCCCAA | 5.46 |

| Sequence | switch fluorescence ratio |
| --- | --- |
| ACCTCGACGA | 1.17 |
| ACCTCGGTGT | 1.07 |
| ACCTGAATTG | 1.05 |
| ACCTGAGTTG | 1.06 |
| ACCTGCAACA | 1.4 |
| ACCTGGAATG | 1.02 |
| ACCTGGCTGT | 1.05 |
| ACCTGGGCTT | 1.02 |
| ACCTGGTAGC | 1.06 |
| ACCTGGTTTG | 0.999 |
| ACCTGTGCCC | 1.05 |
| ACCTTATGTC | 1.01 |
| ACCTTCCCCT | 1.87 |
| ACCTTCGATT | 1.1 |
| ACCTTCTGTG | 1.56 |
| ACCTTGCATC | 1.35 |
| ACCTTGCTTG | 1.07 |
| ACCTTGGTCC | 1.05 |
| ACGAAAATGT | 1.15 |
| ACGAAAGCGA | 0.926 |
| ACGAAATACC | 2.53 |
| ACGAACAGGT | 1.1 |
| ACGAACTTCT | 1.27 |
| ACGAAGGCCT | 0.975 |
| ACGAATCAAG | 0.991 |
| ACGAATCTAG | 1.02 |

| Sequence | switch fluorescence ratio |
| --- | --- |
| ACGAATTATT | 1.07 |
| ACGACACACT | 1.59 |
| ACGACATGCA | 1.14 |
| ACGACTCAGC | 1.41 |
| ACGAGAGACA | 1.08 |
| ACGAGAGACG | 0.99 |
| ACGAGATACG | 1.13 |
| ACGAGATAGA | 0.99 |
| ACGAGATGGA | 0.971 |
| ACGAGGAGTA | 0.962 |
| ACGAGGATGT | 1.02 |
| ACGAGGGTCC | 1.11 |
| ACGAGTGCG | 1.01 |
| ACGAGTGTG | 1.05 |
| ACGATCAGG | 1.2 |
| ACGATCTATT | 0.974 |
| ACGATGGGA | 0.965 |
| ACGATGTCGA | 1 |
| ACGATGTTGT | 1.02 |
| ACGATTATGG | 1.06 |
| ACGATTCCGC | 1.62 |
| ACGATTCTCT | 0.972 |
| ACGATTGATT | 1.01 |
| ACGATTTTTG | 0.963 |
| ACGCAAATGT | 1.3 |
| ACGCAATGAA | 4.74 |

| Sequence | switch fluorescence ratio |
| --- | --- |
| ACGCACGGAT | 1.41 |
| ACGCATCGCT | 1.08 |
| ACGCATTCCT | 1.61 |
| ACGCCAA | 1.45 |
| ACGCCAACCA | 1.31 |
| ACGCCCTATT | 1.09 |
| ACGCCGGAGT | 1.03 |
| ACGCCTCAGG | 2.01 |
| ACGCGCACGA | 1.04 |
| ACGCGGTATT | 1.02 |
| ACGCTCCTGT | 1.03 |
| ACGCTCTCTC | 1.31 |
| ACGCTGATCA | 1.01 |
| ACGCTGGCCT | 1.06 |
| ACGCTTAGTT | 1.04 |
| ACGCTTCGCA | 1.13 |
| ACGCTTGAGA | 1.02 |
| ACGGAAAGTG | 0.945 |
| ACGGAACAC | 1.75 |
| ACGGAAGGGG | 1.08 |
| ACGGACAGCC | 1.22 |
| ACGGACTGGG | 0.989 |
| ACGGAGACTT | 1.13 |
| ACGGAGAGCG | 0.984 |
| ACGGATATCC | 0.977 |
| ACGGATCTTG | 0.999 |

| Sequence | switch fluorescence ratio |
| --- | --- |
| ACGGATGGCA | 0.93 |
| ACGGATTAGC | 1.04 |
| ACGGCCATGG | 0.926 |
| ACGGCCCTTA | 1.05 |
| ACGGCGGT | 1.11 |
| ACGGCGTATG | 0.996 |
| ACGGCGTTCA | 0.983 |
| ACGGCTTGTT | 0.983 |
| ACGGCTTTGG | 1.03 |
| ACGGGACTGA | 1.11 |
| ACGGGCAGGA | 1.04 |
| ACGGGCTCAT | 0.99 |
| ACGGGCTCG | 0.978 |
| ACGGGGATGG | 0.992 |
| ACGGGGCGAC | 0.99 |
| ACGGGGCTGA | 1.04 |
| ACGGGGTTGA | 1.06 |
| ACGGGTAGCG | 0.984 |
| ACGGGTATCC | 1.05 |
